Assay results: PubChem BioAssay (Tox21)
Several values for one entry are separate records, joined by “and”; a condition that tells them apart may be missing. Equal entries are not always repeated. Inconclusive means that the source gave no clear call. Such entries were picked first, then a sample of the others. Where the call is inconclusive, the potency comes from a doubtful curve fit. Where a structure was tested more than once in an assay, its records may differ in their call. Activity calls are given as the source filed them. The call rests on the fitted dose curve; in most records, active means well fitted inhibition curve with a large enough effect in the repeat runs; inconclusive means weak or mixed curves, or effect the other way; inactive means no such curve, though single readings can be large or run the other way.

Each compound was assayed against Nuclear receptor ROR-gamma (Homo sapiens) (UniProt P51449) (assay: qHTS assay to identify small molecule antagonists of the retinoid-related orphan receptor gamma (ROR-gamma) signaling pathway (AID 1159521; further: nearly all actives have a fitted effect of over 50% in size)). Conditions: Tet-on RORgamma CHO cells, RORE-luciferase, 16 h; series mostly up to 92.4 µM.
Description: U.S. Tox21 Program National Center for Advancing Translational Sciences [NCATS] NIH Chemical Genomics Center [NCGC] U.S. Environmental Protection Agency [EPA] National Institutes of Environmental Health Sciences [NIEHS] National Toxicology Program [NTP] U.S. Food and Drug Administration [FDA] Tox21 Assay Overview: Nuclear steroid hormone receptors are involved in many biological processes including inflammatory responses, cell proliferation, and apoptosis. Environmental factors or compounds disrupting these nuclear receptor pathways and gene expression may promote susceptibility to immunotoxicants and autoimmune diseases. One important group of these expression factors are the retinoid-related orphan receptors. To assess compounds that may interfere with the retinoid-related orphan receptor gamma (ROR-gamma) transcription factor, a cell-based luciferase assay was used. The CHO cell-based assay utilizes a TET-inducible ROR expression factor and ROR response element-LUC reporter gene. Reporter gene activity was induced using Doxycycline Hyclate and measured after 16 hr incubation. Tet-on ROR gamma CHO cells were used to screen against the Tox21 10K compound library for ROR gamma antagonists by quantification of decreased reporter gene activity in terms of decreased luminescence.
Tox21 Assay Protocol Summary: Tet-on ROR gamma CHO cells were dispensed at 1,000 cells in 4 uL of culture medium per well into white wall/solid bottom 1536-well plates using a Multidrop Combi (Thermo Scientific, Waltham, MA) dispenser. Following incubation at 37 C and 5% CO2 for 4 hr, 23 nL of compounds dissolved in DMSO, positive controls or DMSO only were transferred by a Pintool station (Kalypsys, San Diego, CA) and after 2 hr incubation at 37 C, one ul of 1 uM (final concentration) of Doxycycline Hyclate was added to all the wells by using a Flying Reagent Dispenser (FRD) (Aurora Discovery, San Diego, CA). After 16 hr incubation at 37 C and 5% CO2, 5 uL of ONE-Glo reagent (Promega Corporation, Madison, WI) was added to each assay plate using FRD. After 30 min incubation at room temperature, luminescence was quantified on a ViewLux plate reader (Perkin Elmer, Waltham, MA).
Potency means the concentration at half of the fitted maximal effect; tags describe the fitted curve by direction and shape.

Row | Structure (SMILES) | Potency
1 | COc1cc([C@@H]2c3cc4c(cc3[C@H](O)[C@H]3COC(=O)[C@H]23)OCO4)cc(OC)c1OC | inconclusive: 0.0422 µM [inhibitor, full curve, poor fit]
2 | CCCC(=O)c1cc(O)c(O)cc1O | inconclusive: 48.6 µM [inhibitor, partial curve, poor fit]
3 | CC(C)CCCCCCc1ccc(O)cc1 | inconclusive: 61.1 µM [inhibitor, single point]
4 | CCCCCCCCCC[N+](C)(CCCCCCCCCC)CCC[Si](OC)(OC)OC | active: 21.7 µM
5 | CS(=O)(=O)CCNCc1ccc(-c2ccc3ncnc(Nc4ccc(OCc5cccc(F)c5)c(Cl)c4)c3c2)o1 | inconclusive: 37.6 µM [inhibitor, partial curve, poor fit]
6 | NC(=O)N/N=C/c1ccc([N+](=O)[O-])o1 | inconclusive: 6.11 µM [inhibitor, full curve]
7 | Clc1ccc(C(Cn2ccnc2)OCc2c(Cl)cccc2Cl)c(Cl)c1 (stereo not given) | active: 13.3 µM
8 | O=c1[nH]sc2ccccc12 | active: 17.2 µM
9 | COC(=O)NCCC[Si](OC)(OC)OC | active: 54.5 µM
10 | CCCCOCCOCCOCc1cc2c(cc1CCC)OCO2 | inconclusive: 22 µM [inhibitor, partial curve]
11 | CC(=O)O[C@]1(C(C)=O)CC[C@H]2[C@@H]3C=C(Cl)C4=CC(=O)[C@@H]5C[C@@H]5[C@]4(C)[C@H]3CC[C@@]21C | inconclusive: 68.5 µM [inhibitor, single point] and inconclusive: 61.1 µM [inhibitor, single point] and inconclusive: 33.5 µM [inhibitor, single point]
12 | Oc1ccc2cc(SSc3ccc4cc(O)ccc4c3)ccc2c1 | inconclusive: 68.7 µM [inhibitor, single point]
13 | O=c1n(CCO)c(=O)n(CCO)c(=O)n1CCO | inconclusive: 34.4 µM [inhibitor, partial curve, poor fit]
14 | CCc1cc(Cc2cc(CC)cc(C(C)(C)C)c2O)c(O)c(C(C)(C)C)c1 | active: 19.3 µM
15 | O=C(c1cc(O)c(O)c(O)c1)c1ccc(O)c(O)c1O | inconclusive: 30.5 µM [inhibitor]
16 | COc1ccc(-n2nc(CCC(=O)N(C)O)cc2-c2ccc(Cl)cc2)cc1 | inconclusive: 7.5 µM [inhibitor, single point]
17 | CC(C)(C)c1ccc(O)c(O)c1 | active: 25.2 µM and active: 27.3 µM
18 | O=C1OC2(c3ccccc31)c1cc(Br)c(O)c(Br)c1Oc1c2cc(Br)c(O)c1Br | inconclusive: 4.45 µM [inhibitor, full curve]
19 | CN1CCN(CCCN2c3ccccc3Sc3ccc(C(F)(F)F)cc32)CC1 | inconclusive: 23.7 µM [inhibitor, partial curve, poor fit]
20 | CC1=C(/C=C/C(C)=C/C=C/C(C)=C/C=O)C(C)(C)CCC1 | active: 30.5 µM

Row | Structure (SMILES) | Potency
21 | CC(=O)O[C@]1(C(C)=O)CC[C@H]2[C@@H]3C[C@H](C)C4=CC(=O)CC[C@]4(C)[C@H]3CC[C@@]21C | inconclusive: 17.2 µM [inhibitor]
22 | OCC(CO)(CBr)CBr | inconclusive: 2.43 µM [inhibitor, single point]
23 | O=S1(=O)CC(Cl)(Cl)C(Cl)(Cl)C1 | active: 2.17 µM
24 | CC(C)(C)CC(C)(C)c1ccccc1O | active: 68.9 µM
25 | CCCCCCC(C)OC(=O)COc1nc(F)c(Cl)c(N)c1Cl (stereo not given) | inconclusive: 38.6 µM [inhibitor, partial curve, poor fit]
26 | Cc1c2ccccc2c(C)c2c1ccc1ccccc12 | active: 24.1 µM and active: 21.7 µM
27 | Cn1cnc2c1c(=O)[nH]c(=O)n2C | inactive
28 | CCCCCCCC/C=C\CCCCCCCCOCCO | active: 20 µM
29 | COc1ccccc1/C=C/C=O | inconclusive: 79 µM [inhibitor, single point]
30 | S=C(NC1CCCCC1)NC1CCCCC1 | inconclusive: 67.3 µM [inhibitor, single point] and active: 48.6 µM
31 | CC(C)OC(=O)C(C)(C)Oc1ccc(C(=O)c2ccc(Cl)cc2)cc1 | inconclusive: 33.5 µM [inhibitor]
32 | c1ccc2[nH]ccc2c1 | active: 1.35 µM and inactive
33 | Clc1ccc2c(c1)C(N1CCNCC1)=Nc1ccccc1O2 | inconclusive: 24.3 µM [inhibitor, partial curve, poor fit]
34 | COc1ccc(OC(=O)N(CC(=O)O)Cc2ccc(OCCc3nc(-c4ccccc4)oc3C)cc2)cc1 | inconclusive: 13.3 µM [inhibitor, partial curve, poor fit]
35 | CCn1c2ccccc2c2cc(N)ccc21 | active: 19.1 µM and inconclusive: 48.6 µM [inhibitor, partial curve, poor fit] and inconclusive: 54.5 µM [inhibitor, partial curve]
36 | CC(C)(C)NC(=O)[C@H]1CC[C@H]2[C@@H]3CC[C@H]4NC(=O)C=C[C@]4(C)[C@H]3CC[C@]12C | inconclusive: 48 µM [inhibitor] and inconclusive: 48.6 µM [inhibitor, partial curve]
37 | CC(CN1c2ccccc2Sc2ccccc21)N(C)C (stereo not given) | inconclusive: 29.8 µM [inhibitor, partial curve, poor fit]
38 | CCOC(=O)C1=C(C)NC(C)=C(C(=O)OCC)C1c1ccccc1/C=C/C(=O)OC(C)(C)C | inconclusive: 33.5 µM [inhibitor, single point]
39 | O=C1NCN(c2ccccc2)C12CCN(CCCC(c1ccc(F)cc1)c1ccc(F)cc1)CC2 | active: 26.6 µM
40 | Clc1nc(C(Cl)(Cl)Cl)c(Cl)c(Cl)c1Cl | inconclusive: 24.3 µM [inhibitor, partial curve, poor fit]
